Reference: PubChem BioAssay AID485294 (National Center for Advancing Translational Sciences (NCATS), 2010)
Hit rate of the full screen: of about 370,000 compounds, about 150 (0.041%) were called active. The shares of active, inactive and inconclusive entries below differ from those in the screen. The call rests on the fitted dose curve; in most records, active means well fitted inhibition curve with a large enough effect; inconclusive means small, poorly fitted or top-dose-only effect; inactive means flat fitted curve, though single readings scatter. Potencies of inconclusive entries are left out as doubtful fits.

Target: Beta-lactamase (Escherichia coli (strain K12)) (UniProt P00811)
Sequence of UniProt P00811 (P00811 whole entry, looked up): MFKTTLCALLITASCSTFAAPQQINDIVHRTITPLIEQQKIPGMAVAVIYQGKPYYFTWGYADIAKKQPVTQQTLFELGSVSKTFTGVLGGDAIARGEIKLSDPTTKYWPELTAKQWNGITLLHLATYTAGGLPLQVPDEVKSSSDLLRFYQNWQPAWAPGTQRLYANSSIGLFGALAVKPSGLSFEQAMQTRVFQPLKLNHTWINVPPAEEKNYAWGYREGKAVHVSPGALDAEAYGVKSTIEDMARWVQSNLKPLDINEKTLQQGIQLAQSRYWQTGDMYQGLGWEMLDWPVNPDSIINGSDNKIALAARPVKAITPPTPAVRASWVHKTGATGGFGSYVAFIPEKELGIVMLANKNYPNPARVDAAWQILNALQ
Assay: qHTS Inhibitors of AmpC Beta-Lactamase (assay with detergent); further: nearly all actives have a fitted effect of over 25% in size;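 on activity change, negative = inhibition: 0% = no-compound wells and -100% = no-enzyme wells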
Details: AmpC hydrolysis of nitrocefin, absorbance 480 nm, 0.01% Triton; activity change, negative = inhibition: at 114 µM (top of the series)
Procedure, shortened: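 AmpC (5.3 nM in the dispensed reagent) in 20 mM phosphate pH 7.0 with 0.01% (detergent screen) or 0.0001% Triton X-100 was preincubated with compounds for 15 min at room temperature. Nitrocefin was then added from an 800 uM solution, and hydrolysis was followed at 480 nm.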
Potency means the concentration at half of the fitted maximal effect; tags describe the fitted curve by direction and shape.

| Compound | Potency | activity change, negative = inhibition |
| --- | --- | --- |
| CCCCCCCC(=O)NC(Nc1ccccc1OC)C(Cl)(Cl)Cl (configuration not stated) | inconclusive [inhibitor, single point] |  |
| O=C(CSc1n[nH]c(Cc2ccccc2)n1)Nc1ccccc1Br |  | inactive: 1.69% |
| Cc1ccc(NC(=O)C2CCN(C(=O)c3ccc(F)cc3)CC2)nc1 | inconclusive [inhibitor, full curve, poor fit] |  |
| O=C(COC(=O)CSc1ccc(F)cc1)NNC(=O)c1ccc([N+](=O)[O-])cc1 | inconclusive [inhibitor, full curve, poor fit] |  |
| COCCCNC(=O)C(=O)N/N=C/c1ccc(OCC(=O)Nc2cccc(Cl)c2C)c(OC)c1 | inconclusive [inhibitor, full curve] |  |
| Cc1ccc(S(=O)(=O)N(C)C)cc1NC(=O)c1ccccc1SCC(=O)N1CCCC1 | inconclusive [inhibitor, full curve, poor fit] |  |
| COc1cccc(C(=O)NNC(=O)Cc2ccc(Cl)cc2)c1 | inconclusive [inhibitor, single point] |  |
| O=C(Nc1ccc(N2CCOCC2)nc1)c1cccs1 | inconclusive [inhibitor, full curve, poor fit] |  |
| Clc1cc2c(nn1)Nc1ccccc1S2 | inconclusive [inhibitor, single point] |  |
| Cc1ccc(CCNC(=O)CCN2N=C(c3ccc(C)cc3)CCC2=O)cc1 |  | inactive: -7.55% |
| COc1cc(OC)c(C=O)c(OC(=O)N2CCOCC2)c1 | inconclusive [inhibitor, full curve, poor fit] |  |
| COc1ccc(-c2csc3nc(C)nc(N4CCCCC4)c23)cc1OC | inconclusive [inhibitor, single point] |  |
| Cc1cc(N(C)C)nc(Nc2ccccc2)n1 |  | inactive: 4.89% |
| Cn1c(O)c(C(=N)COc2ccccc2)c(=O)n(C)c1=O |  | inactive: -7.56% |
| COc1ccc(NC(=O)c2ccccc2NS(C)(=O)=O)cc1OC | inconclusive [inhibitor, partial curve] |  |
| O=C(O)C1CCCN(S(=O)(=O)c2ccc(Br)s2)C1 (configuration not stated) | inconclusive [inhibitor, full curve, poor fit] |  |
| CC(C)=CC(=O)OCC(=O)Nc1ccc(F)cc1Cl | inconclusive [inhibitor, full curve, poor fit] |  |
| CCOC(=O)n1c(=O)[nH]c2ccc(Br)cc21 | inconclusive [inhibitor, full curve] |  |
| O=c1c2cnn(-c3ccc(Cl)cc3)c2ncn1Cc1ccc(Cl)cc1Cl |  | inactive: -7.7% |
| O=C(N/N=C\c1ccncc1)c1ccc(Cl)s1 |  | inactive: 8.13% |
| COc1ccc(NC(=O)CC(C(=O)O)N2CCCCC2)cc1 (configuration not stated) | inconclusive [inhibitor, single point] |  |
| Cc1cccc(/C(N)=N/OC(=O)COc2ccc(Cl)c(C)c2)c1 | inconclusive [inhibitor, partial curve, poor fit] |  |
| N#Cc1cc(NC2CCCC2)c([N+](=O)[O-])cc1C#N | inconclusive [inhibitor, full curve, poor fit] |  |

| Compound | Potency | activity change, negative = inhibition |
| --- | --- | --- |
| CCC(CC)C(=O)Nc1cc(-c2cccc(C)c2)nn1-c1ccccc1 |  | inactive: -3.49% |
| CSc1oc(-c2ccccc2)nc1S(=O)(=O)c1ccc(F)cc1 | inconclusive [inhibitor, partial curve, poor fit] |  |
| CCn1c(CCc2nc3ccccc3[nH]2)n[nH]c1=S | inconclusive [inhibitor, partial curve, poor fit] |  |
| C=CCn1c(CCNC(=O)c2ccccc2F)nnc1SCC(=O)Nc1nc2ccccc2s1 |  | inactive: 0.718% |
| O=C(O)Cn1c(-c2cscn2)nc2ccccc21 | inconclusive [inhibitor, full curve, poor fit] |  |
| CC1CN(S(=O)(=O)c2cccc(C(=O)NNC(=O)C(C)Oc3ccccc3F)c2)CC(C)O1 (configuration not stated) | inconclusive [inhibitor, full curve] |  |
| Cc1nn(-c2ccccc2)c(=S)c2ccccc12 |  | inactive: 6.34% |
| COc1cc(NC(=O)CN2C(=O)C(c3ccc(C)cc3)=NC23CCCCC3)cc(OC)c1 |  | inactive: 13.3% |
| COc1cc([N+](=O)[O-])ccc1NC(=O)CCCOc1cc(C)ccc1C | inconclusive [inhibitor, partial curve] |  |
| COCCc1ncc(CN2CCCCC2C(=O)Nc2ccc(Oc3ccccc3)nc2)cn1 (configuration not stated) |  | inactive: 2.38% |
| CN(CC(=O)NCc1ccccn1)S(=O)(=O)c1cc(Cl)ccc1Cl | inconclusive [inhibitor, full curve, poor fit] |  |
| CC(C)N(C(=O)COc1ccc(Br)cc1Cl)C(C)C | inconclusive [inhibitor, full curve, poor fit] |  |
| Cc1ccc([N+](=O)[O-])cc1S(=O)(=O)Nc1ccc(N2CCOCC2)cc1 | inconclusive [inhibitor, single point] |  |
| CC(=O)Nc1ccc(NC(=O)COC(=O)c2n[nH]c3ccccc23)cc1 | inconclusive [inhibitor, full curve, poor fit] |  |
| CCOC(=O)c1[nH]c(C)c(C(=O)O)c1C | inconclusive [inhibitor, partial curve, poor fit] |  |
| COc1cc(NCCCCCCCN)c2ncccc2c1 | inconclusive [inhibitor, single point] |  |
| NC(=O)c1oc2ccccc2c1NC(=O)c1ccc([N+](=O)[O-])o1 | inconclusive [inhibitor, partial curve, poor fit] |  |
| Cc1[nH]nc2c1C1(CCC(c3ccccc3)CC1)C(C#N)=C(N)O2 (configuration not stated) | inconclusive [inhibitor, single point] |  |
| O=C(c1cccs1)c1no[n+]([O-])c1C(=O)c1cccs1 |  | inactive: 0.251% |
| CCC(C)Sc1ccc([C@@H]2[C@@H]3C(=O)N(C)C(=O)[C@@H]3[C@]3(C(=O)OC)CCCCN23)cc1 (some centres not stated) | inconclusive [inhibitor, single point] |  |
| CCOc1ccc(-n2c(SCC(=O)Nc3cc(C)on3)nc3c(c2=O)SCC3)cc1 | inconclusive [inhibitor, full curve, poor fit] |  |
| NC(=O)C[C@@H]1N[C@]2(C(=O)Nc3ccccc32)[C@@H]2C(=O)N(c3cc(C(F)(F)F)ccc3Cl)C(=O)[C@H]12 | inconclusive [inhibitor, full curve, poor fit] |  |
| O=C(CSc1nnc(NC(=O)c2cc(Br)ccc2Cl)s1)NCC1CCCO1 (configuration not stated) | inconclusive [inhibitor, partial curve, poor fit] |  |

| Compound | Potency | activity change, negative = inhibition |
| --- | --- | --- |
| COc1ccc(NS(=O)(=O)c2cccc(C(=O)NC3CCC(O)CC3)c2)cc1 (configuration not stated) | inconclusive [inhibitor, full curve, poor fit] |  |
| O=C(CSc1n[nH]c(=O)[nH]c1=O)Nc1ccc2c(c1)C(=O)c1ccccc1C2=O | inconclusive [inhibitor, full curve, poor fit] |  |
| CCCCCCOc1ccc(N2C(=O)CC(SCCN)C2=O)cc1 (configuration not stated) |  | inactive: 1.47% |
| CCSc1nnc(NC(=O)c2cccnc2Cl)s1 | inconclusive [inhibitor, single point] |  |
| COc1ccc(CNS(=O)(=O)c2cc3c(cc2C)n(C)c(=O)c(=O)n3C)cc1 |  | inactive: 1.08% |
| Cc1ccc(-n2ncc3c(=O)[nH]c(SCC(=O)N4CCC(C)CC4)nc32)cc1C | inconclusive [inhibitor, full curve] |  |
| CCNC(=S)Nc1ccccc1-c1ccccc1 | inconclusive [inhibitor, full curve, poor fit] |  |
| O=C1/C(=C/c2ccco2)Cc2ccccc21 |  | inactive: -7.3% |
| Cc1cc(C)nc(SCc2nnc(SCC(=O)OC3CCCCC3)o2)n1 | inconclusive [inhibitor, full curve] |  |
| Cc1ccc(C)c(N2CCN(C(=O)C3CCCCN3S(=O)(=O)c3ccc(F)cc3)CC2)c1 (configuration not stated) | inconclusive [inhibitor, partial curve, poor fit] |  |
| CCOC(=O)C1CCN(CC(=O)Nc2cc(S(=O)(=O)N3CCCCC3)ccc2Cl)CC1 |  | inactive: -19.7% |
| COc1ccc(CCNC(=O)C2CCN(C(=O)c3ccc([N+](=O)[O-])cc3)CC2)cc1 | inconclusive [inhibitor, full curve, poor fit] |  |
| CCOc1ccc(NC(=O)CSc2ncc(-c3ccc(F)cc3)n2Cc2ccco2)cc1 |  | inactive: -8.12% |
| CCCCOc1ccc(S(=O)(=O)Nc2cc(OC)ccc2OC)cc1 | inconclusive [inhibitor, full curve] |  |
| CNC(=S)N(Cc1ccco1)Cc1cc2cc(OC)ccc2[nH]c1=O |  | inactive: 0.895% |
| COc1cc(F)ccc1CN1CCC(n2nccc2NC(=O)C2CCOC2)CC1 (configuration not stated) |  | inactive: -8.9% |
| COc1ccc(C2CC(c3ccccc3OC(C)=O)=NN2C(=O)/C=C/c2ccccc2)cc1OC (configuration not stated) | inconclusive [inhibitor, full curve, poor fit] |  |
| O=C(CC1C(=O)NCCN1Cc1ccccc1C(F)(F)F)NC1CCCCCC1 (configuration not stated) | inconclusive [inhibitor, partial curve, poor fit] |  |
| Cn1c(C(=O)NCc2cccs2)cc2oc3ccccc3c21 | inconclusive [inhibitor, full curve, poor fit] |  |
| COc1ccc(C(=O)N2CCN(Cc3ccccc3[N+](=O)[O-])CC2)cc1 |  | inactive: 1.88% |
| Cc1cc(C)n(-c2nc3ccccc3c(=O)n2OC2CCCCC2)n1 | inconclusive [inhibitor, full curve, poor fit] |  |
